Some of the results follow. The list includes weakly bound sequences.
These sequences were tested against T1, MBP-FoxP3dN (UniProt Q99JB6) (assay: PD-seq (MBP pull-down with sequencing)). Settings: 20 mM Tris-HCl pH 7.5, 100 mM NaCl, 1.5 mM MgCl2, 0.4 uM protein, 0.1 uM dsDNA library, 30 min, room temperature, amylose pull-down; high values mean tight binding; double strand, one strand shown.
T1 sequence: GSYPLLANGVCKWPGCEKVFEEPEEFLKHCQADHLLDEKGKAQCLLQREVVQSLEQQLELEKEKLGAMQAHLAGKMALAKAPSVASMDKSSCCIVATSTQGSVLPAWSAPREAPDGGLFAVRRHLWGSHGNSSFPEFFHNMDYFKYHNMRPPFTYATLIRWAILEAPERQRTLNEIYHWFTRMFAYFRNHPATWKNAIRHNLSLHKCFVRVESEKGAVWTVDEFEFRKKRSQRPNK

Sequence | binding signal (RPM ratio (pull-down/input))
GATGATTGTTCTCCCAGCTGATGAATTCAGCGAGTCGAGTAAACAAATTTTCCTAATCTTTCTGTTCAAGCGCCATCTAC | 0.527
GATGATTGTTCTCCCAGCTGATGAATTTACAGCATCGAGTAAACAAATTTTCCTAATCTTTCTGTTCAAGCGCCATCTAC | 1.07
GATGATTGTTCTCCCAGCTGATGAATTTTGCGCATCGAGTAAACAAATTTTCCTAATCTTTCTGTTCAAGCGCCATCTAC | 1.98
GATGATTGTTCTCCCAGCTGATGAATTCCCTGCTTCGAGTAAACAAATTTTCCTAATCTTTCTGTTCAAGCGCCATCTAC | 0.268
GATGATTGTTCTCCCAGCTGATGAATTAGGTTAGTCGAGTAAACAAATTTTCCTAATCTTTCTGTTCAAGCGCCATCTAC | 1.05
GATGATTGTTCTCCCAGCTGATGAATTTATTTGCTCGAGTAAACAAATTTTCCTAATCTTTCTGTTCAAGCGCCATCTAC | 6.11
GATGATTGTTCTCCCAGCTGATGAATTTGATACCTCGAGTAAACAAATTTTCCTAATCTTTCTGTTCAAGCGCCATCTAC | 1.2
GATGATTGTTCTCCCAGCTGATGAATTTTGTACGTCGAGTAAACAAATTTTCCTAATCTTTCTGTTCAAGCGCCATCTAC | 1.18
GATGATTGTTCTCCCAGCTGATGAATTATTGCATTCGAGTAAACAAATTTTCCTAATCTTTCTGTTCAAGCGCCATCTAC | 7.31
GATGATTGTTCTCCCAGCTGATGAATTTAGCGGGTCGAGTAAACAAATTTTCCTAATCTTTCTGTTCAAGCGCCATCTAC | 0.56
GATGATTGTTCTCCCAGCTGATGAATTCTAGTCTTCGAGTAAACAAATTTTCCTAATCTTTCTGTTCAAGCGCCATCTAC | 0.382
GATGATTGTTCTCCCAGCTGATGAATTAGTACATTCGAGTAAACAAATTTTCCTAATCTTTCTGTTCAAGCGCCATCTAC | 0.842
GATGATTGTTCTCCCAGCTGATGAATTTAAACAATCGAGTAAACAAATTTTCCTAATCTTTCTGTTCAAGCGCCATCTAC | 0.913
GATGATTGTTCTCCCAGCTGATGAATTTGTCTATTCGAGTAAACAAATTTTCCTAATCTTTCTGTTCAAGCGCCATCTAC | 5.7
GATGATTGTTCTCCCAGCTGATGAATTGAGCTGTTCGAGTAAACAAATTTTCCTAATCTTTCTGTTCAAGCGCCATCTAC | 0.939
GATGATTGTTCTCCCAGCTGATGAATTCTCGGTTTCGAGTAAACAAATTTTCCTAATCTTTCTGTTCAAGCGCCATCTAC | 0.333

Sequence | binding signal (RPM ratio (pull-down/input))
GATGATTGTTCTCCCAGCTGATGAATTTGCCTTTTCGAGTAAACAAATTTTCCTAATCTTTCTGTTCAAGCGCCATCTAC | 2.1
GATGATTGTTCTCCCAGCTGATGAATTTGCCGATTCGAGTAAACAAATTTTCCTAATCTTTCTGTTCAAGCGCCATCTAC | 0.474
GATGATTGTTCTCCCAGCTGATGAATTATTTTAGTCGAGTAAACAAATTTTCCTAATCTTTCTGTTCAAGCGCCATCTAC | 0.414
GATGATTGTTCTCCCAGCTGATGAATTATTGTATTCGAGTAAACAAATTTTCCTAATCTTTCTGTTCAAGCGCCATCTAC | 3.03
GATGATTGTTCTCCCAGCTGATGAATTACAACCGTCGAGTAAACAAATTTTCCTAATCTTTCTGTTCAAGCGCCATCTAC | 0.497
GATGATTGTTCTCCCAGCTGATGAATTACCTGACTCGAGTAAACAAATTTTCCTAATCTTTCTGTTCAAGCGCCATCTAC | 0.229
GATGATTGTTCTCCCAGCTGATGAATTTAAAAGCTCGAGTAAACAAATTTTCCTAATCTTTCTGTTCAAGCGCCATCTAC | 0.237
GATGATTGTTCTCCCAGCTGATGAATTGCTCCGATCGAGTAAACAAATTTTCCTAATCTTTCTGTTCAAGCGCCATCTAC | 0.349
GATGATTGTTCTCCCAGCTGATGAATTGTTGTAGTCGAGTAAACAAATTTTCCTAATCTTTCTGTTCAAGCGCCATCTAC | 2.5
GATGATTGTTCTCCCAGCTGATGAATTGAACGAGTCGAGTAAACAAATTTTCCTAATCTTTCTGTTCAAGCGCCATCTAC | 0.257
GATGATTGTTCTCCCAGCTGATGAATTATACCCCTCGAGTAAACAAATTTTCCTAATCTTTCTGTTCAAGCGCCATCTAC | 0.373
GATGATTGTTCTCCCAGCTGATGAATTTGAGCTCTCGAGTAAACAAATTTTCCTAATCTTTCTGTTCAAGCGCCATCTAC | 0.363
GATGATTGTTCTCCCAGCTGATGAATTACGTGTGTCGAGTAAACAAATTTTCCTAATCTTTCTGTTCAAGCGCCATCTAC | 1.4
GATGATTGTTCTCCCAGCTGATGAATTCATCTCGTCGAGTAAACAAATTTTCCTAATCTTTCTGTTCAAGCGCCATCTAC | 0.361
GATGATTGTTCTCCCAGCTGATGAATTTTCCGAGTCGAGTAAACAAATTTTCCTAATCTTTCTGTTCAAGCGCCATCTAC | 0.207
GATGATTGTTCTCCCAGCTGATGAATTGTTTCACTCGAGTAAACAAATTTTCCTAATCTTTCTGTTCAAGCGCCATCTAC | 0.782
